Results published in PubChem BioAssay AID463173 (ICCB-Longwood Screening Facility, Harvard Medical School, 2010).
About 1,700 (3.3%) of roughly 52,000 compounds were called active. No stated cut-off is given here; in the data, active means survival mostly below about 52% (no sharp cut-off); inactive means mostly above about 56%. This is one part of the list.

These compounds were tested on Wild type (assay: S. aureus survival, RN4220 and DeltatarO strains – OD600, teichoic acid synthesis inhibitors, primary screen (AID 463173)). Conditions: S. aureus RN4220 wild type/DeltatarO growth, OD600, 18 h, stronger effect = lower value, screened at 18.75 µg/mL (by protocol).
With O=C(CN1CCC(NC(=O)NC2CCCCC2)CC1)Nc1cccc(I)c1 the survival was inactive: 99%.
For COc1ccc(CCNC(=O)c2ccc3c(c2)ncn3-c2ccc(C(C)C)cc2)cc1OC, the survival was inactive: 80%.
CC(C)c1ccc2occ(CC(=O)N(Cc3ccc(F)cc3)C3CCS(=O)(=O)C3)c2c1 (stereo not drawn) was tested, and the survival was inactive: 76%.
In the case of Cc1cc(/C(O)=C2\C(=O)C(=O)N(CCCN(C)C)C2c2ccc(O)cc2)ccc1OCC(C)C (stereo not drawn), the survival is reported as inactive: 112%.
In the case of O=C(Nc1ccccc1)N(Cc1cccc(Cl)c1)c1ccccn1, the survival is reported as inactive: 75%.
With CC(=O)c1ccc(N2CCN(C(=O)Nc3ccc(C(C)C)cc3)CC2)cc1 the survival was inactive: 85%.
With COc1ccc(NC(=O)c2ccco2)cc1NC(=O)c1c(OC)cccc1OC the survival was inactive: 67%.
For CCC(=O)NCC1COc2ccccc2O1 (stereo not drawn), the survival was inactive: 109%.
With COc1ccccc1NC(=O)C1=C(C)Nc2ncnn2C1c1cccn1C (stereo not drawn) the survival was active: 0%.
CCOc1ccc(CN2C(=O)c3ccccc3C2C(=O)NCCc2ccc(OC)c(OC)c2)cc1 (stereo not drawn) was tested, and the survival was inactive: 69%.
In the case of COc1ccc(Cn2c(CO)cnc2SCc2ccccc2C)cc1, the survival is reported as inactive: 78%.
In the case of COc1ccc(CNC(=O)Cc2c(C)c3cc4c(C)coc4c(C)c3oc2=O)cc1OC, the survival is reported as inactive: 98%.
In the case of CCOC(=O)c1c(S(=O)(=O)N2CCC(C(=O)Nc3ccc(F)cc3F)CC2)c(C)n(C)c1C, the survival is reported as inactive: 80%.
In the case of CCOc1ccc(CNS(=O)(=O)c2ccc3c(c2)CCCN3C(C)=O)cc1, the survival is reported as inactive: 66%.
CC1Cc2cc(S(=O)(=O)CCC(=O)NCc3ccccc3Cl)ccc2N1C(=O)C1CC1 (stereo not drawn) was tested, and the survival was inactive: 72%.
In the case of COc1ccc(-n2cc(C(=O)Oc3cc(C)cc(C)c3)c3ccccc3c2=O)cc1, the survival is reported as inactive: 153%.
In the case of COc1cccc(NC(=O)Cn2cc(C(=O)c3ccco3)c3ccccc32)c1, the survival is reported as inactive: 64%.
O=C(CCSc1nc(-c2ccco2)cc(C(F)(F)F)n1)NC1CC1 was tested, and the survival was inactive: 111%.
Cc1ccc(C)c(NC(=O)C2CCN(c3cc(C)nc4c(-c5ccc(Cl)cc5)c(C)nn34)CC2)c1 was tested, and the survival was inactive: 83%.
CCC(=O)N1CCc2cc(S(=O)(=O)Nc3cc(C)ccc3OC)ccc21 was tested, and the survival was inactive: 73%.
With COc1ccccc1CC(=O)Nc1ccc2nc(Nc3cccc(Cl)c3)cc(C)c2c1 the survival was inactive: 148%.
Cc1ccc(-n2c(SCC(=O)c3ccccc3)nc3c([nH]c4ccccc43)c2=O)cc1 was tested, and the survival was active: -6%.
For COc1ccc(-c2csc3ncnc(Nc4cc(OC)cc(OC)c4)c23)cc1, the survival was inactive: 124%.
CC(C)C(=O)Nc1ccc2nc(SCC(=O)N3CCc4ccccc43)sc2c1 was tested, and the survival was inactive: 106%.
In the case of O=C(Nc1ccc2oc(-c3cccc(F)c3)nc2c1)c1ccc2ccccc2c1, the survival is reported as inactive: 81%.
For Cc1cc(C)cc(NC(=O)c2cc(S(=O)(=O)N3CCc4ccccc43)cn2C)c1, the survival was inactive: 82%.
In the case of COc1ccccc1CNC(=O)c1ccc2c(c1)N(Cc1c(F)cccc1Cl)C(=O)CS2, the survival is reported as inactive: 66%.
CC(C)c1ccc(NC(=O)Cn2cc(S(=O)(=O)Cc3ccccc3Cl)c3ccccc32)cc1 was tested, and the survival was inactive: 72%.
With CC1CCN(C(=O)CSc2nc3ccccc3nc2Cc2ccccc2)CC1 the survival was inactive: 73%.
In the case of CCOc1ccccc1N1CCN(S(=O)(=O)c2ccc(C3CCCCC3)cc2)CC1, the survival is reported as inactive: 60%.
COc1cccc(NC(=O)Cn2c(=O)n(CCCCC(=O)NCc3ccccc3Cl)c(=O)c3ccccc32)c1 was tested, and the survival was inactive: 80%.
CCCCC(Sc1nc2cc3c(cc2c(=O)n1CCCC(=O)NCc1ccc2c(c1)OCO2)OCO3)C(=O)OCC (stereo not drawn) was tested, and the survival was inactive: 99%.
For O=C(CSc1ncc(S(=O)(=O)c2ccc(Br)cc2)c(=O)[nH]1)Nc1ccc2c(c1)OCCO2, the survival was inactive: 87%.
With Cc1ccc(CNC(=O)Cn2c3ncccc3c(=O)n2-c2ccc(C)cc2)cc1 the survival was inactive: 135%.
With COc1ccccc1N1CCN(c2cc(C)nc3nncn23)CC1 the survival was inactive: 90%.
For COc1ccc(C)c2sc(N3CCN(C(=O)c4ccco4)CC3)nc12, the survival was active: -1%.
In the case of CCOc1ccc(CNC(=O)CSc2c3c(nc4ccc(Cl)cc24)CCCC3)cc1, the survival is reported as inactive: 84%.
For CC(C)c1cc(-c2nc(-c3cccc(Cl)c3)no2)n[nH]1, the survival was inactive: 131%.
For Cc1nn2c(=O)cc(COC(=O)c3ccc(NC(=O)COc4ccccc4F)cc3)nc2s1, the survival was inactive: 143%.
For Cc1ccc2oc(C(=O)Nc3sc4c(c3C(=O)NCc3ccco3)CCC4)cc(=O)c2c1, the survival was inactive: 84%.
For Cc1nc2c(c(C)nn2C(C)(C)C)c(C)c1CCC(=O)Nc1ccc(F)cc1, the survival was inactive: 93%.
In the case of CC(=O)NC(CC(=O)O)c1ccc(F)cc1 (stereo not drawn), the survival is reported as inactive: 107%.
In the case of CC(=O)c1ccc(N2CCN(C(=O)CCCn3c(=O)[nH]c4ccsc4c3=O)CC2)cc1, the survival is reported as inactive: 66%.
For Cn1c(C(=O)NCc2cccc(Cl)c2)cc2oc3ccccc3c21, the survival was inactive: 99%.
Cc1nn(CC(=O)NCc2ccc(N(C)C)cc2)c(=O)c2nn(-c3ccccc3)c(C)c12 was tested, and the survival was inactive: 88%.
For COc1ccc(C(CC(=O)Nc2ccc(Br)cn2)N2Cc3ccccc3C2=O)cc1 (stereo not drawn), the survival was inactive: 59%.
For COCCCNC(=O)c1ccc(Cn2c(=O)c3cccn3c3cccnc32)cc1, the survival was inactive: 95%.
O=[N+]([O-])c1ccc(O)c(-c2ccnc3cc(-c4ccccc4)nn23)c1 was tested, and the survival was inactive: 29%.
For Cc1ccc(Cn2c(CN3CCN(c4cccc(Cl)c4)CC3)nc3c2c(=O)n(C)c(=O)n3C)cc1, the survival was inactive: 110%.
In the case of Cn1ccnc1-c1ccc(-c2nccn2C)cc1, the survival is reported as inactive: 110%.
COc1ccccc1CCNC(=O)C1CCN(c2nnc(C)c3c(C)n(-c4ccc(C)cc4)nc23)CC1 was tested, and the survival was inactive: 58%.
COc1ccc(NC(=O)CC(C)S(=O)(=O)c2cc3c(cc2C)NC(=O)CO3)cc1OC (stereo not drawn) was tested, and the survival was inactive: 79%.
O=C(Nc1nnc(S(=O)(=O)N2CCCCCC2)s1)c1ccc(Cl)cc1 was tested, and the survival was inactive: 74%.
With CCCNc1nc(Cl)nc(Cl)n1 the survival was inactive: 99%.
With Cc1ccc2c(=O)cc(C(=O)Nc3c(C(=O)c4ccc(F)cc4)oc4ccccc34)oc2c1C the survival was inactive: 84%.
With CSc1nn(CC(=O)Nc2cc(C)ccc2C)c(N)c1S(=O)(=O)c1ccccc1 the survival was inactive: 45%.
For COc1ccccc1CNC(=O)C1CCN(c2nnc(C)c3c(C)n(-c4ccccc4)nc23)CC1, the survival was inactive: 86%.
With CC(C)CC(=O)OCc1cc(=O)n2nc(C3CCCCC3)sc2n1 the survival was inactive: 67%.
CCC(CC)C(=O)Nc1cc(-c2nc3cccnc3s2)ccc1C was tested, and the survival was inactive: 96%.
In the case of Cc1cccc(C)c1OC(=O)CSc1nnc(-c2ccc3c(c2)OCO3)o1, the survival is reported as inactive: 84%.
In the case of CCOC(=O)Cn1c(=O)oc2cc(S(=O)(=O)N3CCN(c4ccc(F)cc4)CC3)ccc21, the survival is reported as inactive: 130%.
With CCOc1ccc(CC(C(=O)NN)C(=O)NN)cc1CN(C)C the survival was inactive: 115%.
With Cc1ccc(NC(=O)CN2C(=O)CC(c3ccc(C)c(C)c3)=Nc3ccccc32)cc1 the survival was inactive: 68%.
In the case of COc1ccc(CCNC(=O)c2c(C)oc3ncn(CC(C)C)c(=O)c23)c(OC)c1, the survival is reported as inactive: 78%.
For O=C(NC1CCCCC1)C(c1ccncc1)N(CC1CCCO1)C(=O)C(F)(F)F (stereo not drawn), the survival was inactive: 103%.
For COc1ccc(Nc2c(-c3ccsc3)nc3nc(C)cc(C)n23)cc1, the survival was inactive: 97%.
With Cc1c(C(=O)O)sc2nc(-c3ccccc3)cn12 the survival was inactive: 94%.
For CC(C)C(=O)Nc1nnc(S(=O)(=O)N2c3ccccc3CC2C)s1 (stereo not drawn), the survival was inactive: 81%.
In the case of CCSc1nc2ccccc2c(OCc2cc(C(=O)OC)ccc2OC)c1C(=O)OC, the survival is reported as active: -15%.
In the case of COC(=O)c1c(C)sc(-c2c(-c3ccc(OC)c(F)c3)[nH]c3c2c(=O)n(C)c(=O)n3C)c1O, the survival is reported as inactive: 111%.
For Cc1ccc(C(C)C)c(OCC(=O)Nc2ccc(O)c(-c3nc4cc(Cl)ccc4o3)c2)c1, the survival was inactive: 74%.
With CC1(C)Cc2ccccc2-c2nc(NN)[nH]c(=O)c21 the survival was inactive: 100%.
CCCOc1cccc(C(=O)Nc2cccc(NC(=O)c3ccc(Cl)cc3Cl)c2)c1 was tested, and the survival was inactive: 91%.
In the case of O=C(Cn1cc(C(=O)c2cccs2)c2ccccc21)Nc1ccc(Br)cc1, the survival is reported as inactive: 108%.
For O=C1CCSC2(C(=O)N(Cc3ccc(F)cc3)c3ccccc32)N1c1cccc(F)c1 (stereo not drawn), the survival was inactive: 74%.
In the case of CCN1C(=O)c2ccccc2S(=O)c2ccc(C(=O)NCc3ccc(Cl)cc3)cc21 (stereo not drawn), the survival is reported as inactive: 78%.
In the case of CCN(c1cccc(C)c1)S(=O)(=O)c1c(C)nc2sc(C)cn2c1=O, the survival is reported as inactive: 81%.
With CCOC(=O)c1c(-c2ccccc2)oc2ccc(OCc3cccc(Br)c3)cc12 the survival was inactive: 55%.
COc1ccc(C(=O)Oc2cc(-c3ccc(OC)c(OC)c3)cc(=O)c3c(C)oc(C)c23)cc1 was tested, and the survival was inactive: 87%.
CCS(=O)(=O)Nc1ccc(-c2cn3c(C)csc3n2)cc1 was tested, and the survival was inactive: 78%.
For COc1ccc2[nH]c(=O)c(C(c3nnnn3Cc3ccccc3)N(C)C3CCCCC3)cc2c1 (stereo not drawn), the survival was inactive: 108%.
For COc1cccc(C(c2sc3nc(-c4ccco4)nn3c2O)N2CCN(C)CC2)c1 (stereo not drawn), the survival was inactive: 78%.
For COc1ccc(CNC(=O)CN(C)S(=O)(=O)c2ccc3c(c2)c(=O)n(C)c(=O)n3C)cc1, the survival was inactive: 164%.
In the case of COc1ccc(CNC(=O)c2cccn2-c2nnc(N3CCCCC3)s2)c(OC)c1, the survival is reported as active: -2%.
With O=C(NCc1cccnc1)c1c(O)c2cccc3c2n(c1=O)CC3 the survival was inactive: 104%.
In the case of CC(C)c1ccccc1NC(=O)Cn1cnc2c1c(=O)n(C)c(=O)n2C, the survival is reported as inactive: 93%.
COc1ccc(-c2cc(C(=O)NCCc3ccccc3)c3c(-c4ccc(Cl)cc4)[nH]nc3n2)cc1 was tested, and the survival was inactive: 66%.
In the case of COc1ccc(CCNC(=O)CS(=O)(=O)Cc2nc(-c3cccc(Cl)c3)oc2C)cc1OC, the survival is reported as inactive: 70%.
